PubChem BioAssay AID743262 (National Center for Advancing Translational Sciences (NCATS), 2014)
About 25 (2%) of roughly 1,300 compounds were called active. Roughly 9% stayed inconclusive and do not appear here. The call rests on the fitted dose curve; in most records, active means well fitted activation curve with a large enough effect; inconclusive means small, poorly fitted or top-dose-only effect; inactive means flat fitted curve, though single readings scatter. The list shows a part of the results.

Molecular target: Glucagon-like peptide 1 receptor (Homo sapiens) (UniProt P43220)
Assay: qHTS of GLP-1 Receptor Agonists: Hit Validation; further: % of control where 0% means no effect
Details: HEK293 GLP-1R, cAMP-response luciferase, 4-6 h; series mostly up to 46.1 µM; activation: at the top concentration
Summary of the method: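 HEK293 cells stably co-expressing a cAMP-responsive luciferase reporter and GLP-1R (hypersensitive receptor for weak agonists; wild-type line for confirmation) were plated 12 h at 37 °C, exposed to compound 4-6 h, then read by luminescence after 12 min detection reagent.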

Chain of UniProt P43220 (P43220 whole entry, looked up): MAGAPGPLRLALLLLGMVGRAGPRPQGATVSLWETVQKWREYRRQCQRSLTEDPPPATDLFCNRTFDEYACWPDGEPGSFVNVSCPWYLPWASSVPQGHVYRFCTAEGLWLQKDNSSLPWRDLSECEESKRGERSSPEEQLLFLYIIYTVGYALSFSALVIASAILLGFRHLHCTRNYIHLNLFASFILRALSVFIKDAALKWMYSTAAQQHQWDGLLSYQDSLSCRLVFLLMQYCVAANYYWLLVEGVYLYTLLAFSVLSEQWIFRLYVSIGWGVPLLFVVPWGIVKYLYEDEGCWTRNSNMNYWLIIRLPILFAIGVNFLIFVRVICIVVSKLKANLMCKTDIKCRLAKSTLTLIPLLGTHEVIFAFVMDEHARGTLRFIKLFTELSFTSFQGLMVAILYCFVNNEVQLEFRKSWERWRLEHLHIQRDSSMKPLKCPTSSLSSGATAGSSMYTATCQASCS

Row | SMILES | activation
1 | CC1CCCCN1CCCOC(=O)c1ccccc1 (configuration not stated) | inactive: 6.43%
2 | CCOC(=O)c1sc2nc(CC(=O)OC)nc(N(C)CCc3ccccn3)c2c1C | inactive: 2.24%
3 | Cc1ccccc1CN1CCC(CNc2ncnc3onc(-c4ccc(Cl)cc4)c23)CC1 | inactive: 1.69%
4 | COC(=O)c1ccc(COC(=O)c2cccnc2Cl)cc1 | inactive: 3.57%
5 | C[n+]1cnn2c1SCC1(COC1)C2 | inactive: -1.66%
6 | C/C(N)=C(/C#N)C(=O)CSc1nnc(Nc2cccc(C)c2)s1 | inactive: 0.189%
7 | Cc1cc(C)nc(SCc2nnc(SCC(=O)OC3CCCCC3)o2)n1 | inactive: 17.3%
8 | CCCOc1ccc(N/C=C/C(=O)c2ccc(OC)c(OC)c2)cc1 | inactive: -0.343%
9 | Cc1ccc(S(=O)(=O)N2CCC(C(=O)OCC(=O)N3CCc4ccccc43)CC2)cc1 | inactive: -0.209%
10 | CCn1nc(NC(=O)c2ccco2)c2cc3cc(C)ccc3nc21 | inactive: 0.893%
11 | CC(C)Sc1ncc(S(=O)(=O)c2ccccc2)c(=O)[nH]1 | inactive: 0.143%
12 | COc1ccc(CCNC(=O)c2cnn3cccnc23)cc1OC | inactive: 0.676%
13 | COc1cc(SC)ccc1C(=O)NCc1ccc(C)cc1 | inactive: 2.5%
14 | CC12CCC(C(=O)NCc3ccc(F)cc3)(OC1=O)C2(C)C (configuration not stated) | inactive: -0.954%
15 | Clc1ccccc1Nc1nc(NCC2CC2)nc2ccsc12 | inactive: 4.99%
16 | COCCNc1nc2sc3c(c2c(=O)n1Cc1ccco1)CCCCC3 | inactive: 4.68%
17 | NCCC1CCCC(CCN)N1 (configuration not stated) | inactive: 0.323%
18 | COC(=O)CSc1nc2c(c(=O)n(C)c(=O)n2C)n1CCC(C)C | inactive: 2%
19 | S=C(NCCc1ccccc1)N/N=C/c1c(Cl)cccc1Cl | inactive: 20.4%
20 | COc1ccc(C(=O)NCCSCc2ccccc2Cl)cc1OC | inactive: 5.99%
21 | CCOC(=O)c1c(C)n(C)c2ccc(OC)c(NC(=O)CN3CCC4(CC3)OCCO4)c12 | inactive: 0.301%
22 | O=[N+]([O-])c1ccc2c(c1)ncn2-c1ccccc1 | inactive: 2.61%
23 | COc1ccc(-c2cc(NC=O)c3ncc(-c4ccc(C(C)=O)cc4)n3c2)cc1OC | inactive: 25.4%
24 | CC(C)(C)C1CCC(=O)N(CCOc2ccccc2)CC1 (configuration not stated) | inactive: -0.518%

Row | SMILES | activation
25 | COC(=O)c1c(NC(=O)Cc2cccs2)sc(C)c1C | inactive: 5.78%
26 | COc1cccc(/C=C/C(=O)Nc2ccc(N3CCOCC3)cc2)c1OC | inactive: 0.215%
27 | COc1ccc([N+](=O)[O-])cc1NCc1ccccc1 | inactive: 2.42%
28 | Cc1nc(Nc2ccccc2)sc1C(=O)c1ccccc1 | inactive: 5.11%
29 | COc1ccc(-c2cc(C(=O)N(C)Cc3ccccc3)no2)cc1OC | inactive: 7.07%
30 | c1coc(Cn2c(-c3ccco3)nc3ccccc32)c1 | inactive: -0.487%
31 | CCOc1ccc(-c2cc(C(=O)NCc3cc(C(F)(F)F)cc(C(F)(F)F)c3)[nH]n2)c(C)c1 | inactive: 0.302%
32 | FC(F)(F)c1cc(Sc2ccccc2)nc(-c2ccccn2)n1 | inactive: 2.95%
33 | CCc1ccc(CNc2ccc3c(c2)ncn3C(C)(C)C)cc1 | inactive: 5.3%
34 | O=C(c1ccc(Br)o1)N(Cc1ccccc1)c1ccccn1 | inactive: -0.613%
35 | COc1ccc(-c2csc(C(C)(NC(C)=O)c3ccccc3)n2)cc1 (configuration not stated) | inactive: 5.87%
36 | COc1cc(-c2nnc(SCc3ccccc3Cl)o2)cc(OC)c1OC | inactive: 19.3%
37 | COc1ccc(C2CC(c3cccs3)=NN2C(=O)COC(=O)c2cncc(Br)c2)cc1OC (configuration not stated) | inactive: 4.58%
38 | COC(=O)c1ccc(CSc2nc(N)cc(N)n2)cc1 | inactive: 1.81%
39 | COc1ccc(-c2csc(Cc3nnc(N4CCOCC4)n3-c3ccccc3)n2)cc1OC | inactive: 0.371%
40 | CCCCCCCSc1ncnc2[nH]ncc12 | inactive: 13.5%
41 | OCCN(CCO)c1nc(N2CCCCC2)c2nc(N(CCO)CCO)nc(N3CCCCC3)c2n1 | inactive: 2.79%
42 | Cc1nc(SC(C)C(=O)c2c(N)n(C)c(=O)n(C)c2=O)c2c(C)c(C)sc2n1 (configuration not stated) | inactive: 21.7%
43 | C[C@]12CC[C@@H]3c4ccc(OC(=O)c5ccccc5)cc4CC[C@H]3[C@@H]1CC[C@@H]2O | inactive: 8.63%
44 | CCCc1nc2ccc(NC(C)=O)cc2c(=O)n1Cc1ccc(Cl)cc1 | inactive: 1.01%
45 | Cc1nn(C)cc1CNC(=O)c1cnn2c(C(F)F)cc(C3CC3)nc12 | inactive: 10.2%
46 | O=C(Nc1ccccc1F)c1ccc(COc2ccc(Cl)cc2Cl)o1 | inactive: 10.5%
47 | COc1ccccc1NC(=O)COc1cccc2c1CCNC2=O | inactive: 11.4%
48 | COc1ccc(C(C#N)=Cc2cccc(OC)c2OC)cc1 | inactive: 4.09%

Row | SMILES | activation
49 | CCc1cc(=O)oc2c3c(cc(OCC(=O)Nc4cccnc4)c12)OC(C)(C)CC3 | inactive: 9.92%
50 | Cc1cc(C)c2c(N)c(C(=O)NCC3CCCCC3)sc2n1 | inactive: 4.29%
51 | C=CCn1c(SCC(=O)N2CCOCC2)nc2scc(-c3ccco3)c2c1=O | inactive: 14.8%
52 | COc1ccc(OC)c(S(=O)(=O)Nc2ccc(-c3ccc4nnc(C)n4n3)cc2)c1 | inactive: 10.5%
53 | COc1ccc(S(=O)(=O)N2CCC[C@H]2C(=O)N2CCC[C@H]2C(=O)NCc2ccccn2)cc1C | inactive: 0.306%
54 | O=C(Nc1nnc(SCc2c(Cl)cccc2Cl)s1)C1CCCO1 (configuration not stated) | inactive: 7.19%
55 | Cc1nc2cc(F)ccc2n1C1CCN(C(=O)c2ccc(F)cc2F)CC1 | inactive: -0.482%
56 | CC(C)CCNC(=O)NC(=O)COC(=O)C1CCN(S(=O)(=O)c2ccccc2F)CC1 | inactive: -0.751%
57 | Cc1nc(Cl)cc(N/N=C/c2ccc(O)cc2)n1 | inactive: 9.25%
58 | Cc1cccc(Nc2nc(N)nc(CSC(=S)N3CCOCC3)n2)c1 | inactive: 3.18%
59 | CCNC(=O)CCn1nc(-c2ccc(C)cc2)c2ccccc2c1=O | inactive: -0.937%
60 | CCC(C)Nc1nc2c(c(=O)[nH]c(=O)n2C)n1CCCc1ccccc1 (configuration not stated) | inactive: 2.03%
61 | CCOc1ccc(-c2nc(CSc3nnc(C)s3)cs2)cc1OC | inactive: 7.01%
62 | CCOC(=O)c1c(-c2cccs2)csc1NC(=O)CN1CCOCC1 | inactive: 16.2%
63 | Cc1snc(SCc2cccc(Cl)c2)c1C#N | inactive: 0.198%
64 | [O-][n+]1c2c(nn1-c1ccc(Cl)c(Cl)c1)-c1nonc1CC2 | inactive: 15.7%
65 | COc1ccc(S(=O)(=O)Nc2ccc3oc4ncccc4c(=O)c3c2)cc1OC | inactive: 2.91%
66 | CCOC(=O)c1c(N)c(C#N)c2n1CCCC2 | inactive: 3.54%
67 | COc1cc2c(cc1OC)/C(=C/C(=O)c1ccccc1F)NCC2 | inactive: 24.2%
68 | O=c1[nH]nc(-c2ccc(NCCO)c([N+](=O)[O-])c2)c2ccccc12 | inactive: 13.2%
69 | CCOc1ccc(N2CC(C(=O)Nc3ccncc3)CC2=O)cc1 (configuration not stated) | inactive: -0.582%
70 | COc1ccc(Nc2nc(-c3sc(C)nc3C)cs2)c(OC)c1 | inactive: 11.7%
71 | CCN(CC)c1ccc(C2=NNC(=O)CC2C)cc1[N+](=O)[O-] (configuration not stated) | inactive: 13.5%
72 | COCCCNC(=O)COc1ccc(-c2nccc(-c3ccccn3)n2)cc1 | inactive: 1.79%
